The IC50 is the point on the concentration scale where inhibition reaches its midpoint. The low end stands for inhibition by little substance, the high end for a need for much substance. As a reminder, the Ki is the dissociation constant of the complex between target and ligand, obtained from inhibition or displacement. Lower therefore signals tighter binding.

This is an account of results in US20020168363A1 (published 2002).

Experiment [1] concerns the target T1, Platelet Fibrinogen Receptor αIIbβ3 (UniProt P08514 32-1039; P05106 27-788). The experiment in a line: inhibition of hu Fibrinogen-Ru binding.
Experiment [2] concerns the target T1, Platelet Fibrinogen Receptor αIIbβ3. The experiment in a line: inhibition of hu Fibrinogen-Ru binding. The source holds these as a separate data set.
In experiment [3] the target is T2, human αvβ3 (human, UniProt P06756 31-1048; P05106 27-788).
T2 chain 1: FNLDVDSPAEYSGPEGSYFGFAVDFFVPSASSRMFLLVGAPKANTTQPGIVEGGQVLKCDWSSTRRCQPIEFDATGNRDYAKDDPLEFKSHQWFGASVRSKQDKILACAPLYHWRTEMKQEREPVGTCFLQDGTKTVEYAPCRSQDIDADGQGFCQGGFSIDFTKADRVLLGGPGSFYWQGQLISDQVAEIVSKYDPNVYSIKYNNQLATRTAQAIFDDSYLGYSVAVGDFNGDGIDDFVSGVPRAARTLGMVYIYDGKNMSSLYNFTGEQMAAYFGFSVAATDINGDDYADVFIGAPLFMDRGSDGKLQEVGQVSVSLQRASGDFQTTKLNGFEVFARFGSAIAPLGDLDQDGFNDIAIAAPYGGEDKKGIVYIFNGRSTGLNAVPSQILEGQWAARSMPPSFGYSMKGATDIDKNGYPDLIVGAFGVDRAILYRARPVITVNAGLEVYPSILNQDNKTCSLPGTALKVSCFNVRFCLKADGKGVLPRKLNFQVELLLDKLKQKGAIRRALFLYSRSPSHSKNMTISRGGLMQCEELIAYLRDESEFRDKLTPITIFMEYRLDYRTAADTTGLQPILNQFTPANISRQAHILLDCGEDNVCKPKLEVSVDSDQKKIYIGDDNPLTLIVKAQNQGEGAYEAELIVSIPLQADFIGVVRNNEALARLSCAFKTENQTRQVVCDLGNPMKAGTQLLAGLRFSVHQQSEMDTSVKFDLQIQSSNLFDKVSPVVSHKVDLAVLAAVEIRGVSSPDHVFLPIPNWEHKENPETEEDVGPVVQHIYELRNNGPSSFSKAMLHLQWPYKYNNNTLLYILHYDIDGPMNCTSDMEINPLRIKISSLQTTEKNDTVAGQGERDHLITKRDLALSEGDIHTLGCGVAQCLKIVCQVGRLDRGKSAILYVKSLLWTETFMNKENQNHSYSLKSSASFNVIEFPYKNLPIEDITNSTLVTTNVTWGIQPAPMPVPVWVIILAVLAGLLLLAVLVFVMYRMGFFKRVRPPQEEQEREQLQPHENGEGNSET
T2 chain 2: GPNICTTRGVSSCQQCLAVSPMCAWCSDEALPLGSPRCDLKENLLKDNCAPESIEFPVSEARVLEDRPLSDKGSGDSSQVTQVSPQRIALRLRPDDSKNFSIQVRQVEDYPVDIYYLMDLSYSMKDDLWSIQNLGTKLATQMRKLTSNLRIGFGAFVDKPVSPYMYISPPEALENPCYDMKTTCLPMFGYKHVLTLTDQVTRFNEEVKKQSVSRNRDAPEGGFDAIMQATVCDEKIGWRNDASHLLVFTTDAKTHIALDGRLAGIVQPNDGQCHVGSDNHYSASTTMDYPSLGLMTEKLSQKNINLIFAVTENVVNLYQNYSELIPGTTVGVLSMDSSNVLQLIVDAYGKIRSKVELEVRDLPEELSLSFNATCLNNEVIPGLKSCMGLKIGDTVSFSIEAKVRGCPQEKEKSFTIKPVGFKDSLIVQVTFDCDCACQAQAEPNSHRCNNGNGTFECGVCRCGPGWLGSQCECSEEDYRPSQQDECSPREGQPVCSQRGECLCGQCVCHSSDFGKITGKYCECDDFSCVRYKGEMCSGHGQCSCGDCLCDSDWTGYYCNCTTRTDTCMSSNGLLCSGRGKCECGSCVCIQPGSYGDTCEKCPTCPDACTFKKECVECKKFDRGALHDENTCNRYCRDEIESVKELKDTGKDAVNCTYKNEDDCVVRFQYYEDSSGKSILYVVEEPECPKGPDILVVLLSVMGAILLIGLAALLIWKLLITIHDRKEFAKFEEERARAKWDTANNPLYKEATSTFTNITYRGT
The experiment in a line: inhibition of hu Vitronectin-Ru binding, solid phase.

Experiment [4] concerns the target T2, human αvβ3. Described as above.

B1: Echistatin-Fc (Fc fusion)
chain: [human IgG1 Fc cut from this listing]GGGGGECESGPCCRNCKFLKEGTICKRARGDDMDDYCNGKTCDCPRNPHKGPAT
As for B1, the IC50 worked out at 0.0719 nM in experiment [1] and 0.127 nM in experiment [3]. In addition, the Ki in experiment [2] was determined as 0.0359 nM; in experiment [4], 0.1 nM.
